Source: the supplement of paper PMC8728848
The list shows a part of the results.

Tests used:
Assay in all cases: glycan array binding signal (z-score within array); higher = stronger binding
Conditions in all cases: glycan notation: IUPAC condensed, linker removed
[1] = biological target: Gal(b1-3)GlcNAc(b1-2)Man(a1-3)[Gal(b1-3)GlcNAc(b1-2)Man(a1-6)]Man(b1-4)GlcNAc(b1-4)GlcNAc
Procedure, shortened: (§1)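 The binding signal is a Z-score computed within each array. Data were drawn from 3228 arrays in the Consortium for Functional Glycomics database, restricted to those with a known protein sequence. Scores were averaged over arrays of the same protein sequence at different concentrations or buffers, and over linkers, and negative values can be taken as non-binding.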

[2] = biological target: Gal(b1-3)GlcNAc(b1-2)Man(a1-3)[Gal(b1-3)GlcNAc(b1-2)Man(a1-6)]Man(b1-4)GlcNAc(b1-4)[Fuc(a1-6)]GlcNAc
Procedure, shortened: as §1

[3] = biological target: Gal(b1-3)GlcNAc(b1-2)Man(a1-3)[GlcNAc(b1-4)][Gal(b1-3)GlcNAc(b1-2)Man(a1-6)]Man(b1-4)GlcNAc(b1-4)GlcNAc
Procedure, shortened: as §1

[4] = biological target: Gal(b1-3)GlcNAc(b1-2)[Gal(b1-3)GlcNAc(b1-6)]Man(a1-6)[Gal(b1-3)GlcNAc(b1-2)Man(a1-3)]Man(b1-4)GlcNAc(b1-4)GlcNAc
Procedure, shortened: as §1

[5] = biological target: Gal(b1-3)GlcNAc(b1-3)Gal(b1-3)GlcNAc
Procedure, shortened: as §1

[6] = biological target: Gal(b1-3)GlcNAc(b1-3)Gal(b1-4)Glc
Procedure, shortened: as §1

[7] = biological target: Gal(b1-3)GlcNAc(b1-3)Gal(b1-4)GlcNAc
Procedure, shortened: as §1

[8] = biological target: Gal(b1-3)GlcNAc(b1-3)Gal(b1-4)GlcNAc(b1-2)Man(a1-3)[Gal(b1-3)GlcNAc(b1-3)Gal(b1-4)GlcNAc(b1-2)Man(a1-6)]Man(b1-4)GlcNAc(b1-4)GlcNAc
Procedure, shortened: as §1

[9] = biological target: Gal(b1-3)GlcNAc(b1-3)Gal(b1-4)GlcNAc(b1-2)[Gal(b1-3)GlcNAc(b1-3)Gal(b1-4)GlcNAc(b1-6)]Man(a1-6)[Gal(b1-3)GlcNAc(b1-3)Gal(b1-4)GlcNAc(b1-2)Man(a1-3)]Man(b1-4)GlcNAc(b1-4)[Fuc(a1-6)]GlcNAc
Procedure, shortened: as §1

[10] = biological target: Gal(b1-3)GlcNAc(b1-3)Gal(b1-4)GlcNAc(b1-3)Gal(b1-4)GlcNAc(b1-2)[Gal(b1-3)GlcNAc(b1-3)Gal(b1-4)GlcNAc(b1-3)Gal(b1-4)GlcNAc(b1-6)]Man(a1-6)[Gal(b1-3)GlcNAc(b1-3)Gal(b1-4)GlcNAc(b1-3)Gal(b1-4)GlcNAc(b1-2)Man(a1-3)]Man(b1-4)GlcNAc(b1-4)[Fuc(a1-6)]GlcNAc
Procedure, shortened: as §1

[11] = biological target: Gal(b1-3)GlcNAc(b1-3)Gal(b1-4)GlcNAc(b1-6)[Gal(b1-3)GlcNAc(b1-3)]Gal(b1-4)Glc
Procedure, shortened: as §1

[12] = biological target: Gal(b1-3)GlcNAc(b1-3)Gal(b1-4)[Fuc(a1-3)]GlcNAc
Procedure, shortened: as §1

[13] = biological target: Gal(b1-3)GlcNAc(b1-3)Gal(b1-4)[Fuc(a1-3)]GlcNAc(b1-6)[Gal(b1-3)GlcNAc(b1-3)]Gal(b1-4)Glc
Procedure, shortened: as §1

[14] = biological target: Gal(b1-3)GlcNAc(b1-3)GalNAc
Procedure, shortened: as §1

[15] = biological target: Gal(b1-3)GlcNAc(b1-6)Gal(b1-4)GlcNAc
Procedure, shortened: as §1

[16] = biological target: Gal(b1-3)GlcNAc(b1-6)GalNAc
Procedure, shortened: as §1

[17] = biological target: Gal(b1-3)GlcNAc(b1-6)[Gal(b1-3)]GalNAc
Procedure, shortened: as §1

Gal(b1-3)GlcNAc6S = biological target: Gal(b1-3)GlcNAc6S
Procedure, shortened: as §1

[18] = biological target: Gal(b1-3)[Fuc(a1-4)]GlcNAc
Procedure, shortened: as §1

[19] = biological target: Gal(b1-3)[Fuc(a1-4)]GlcNAc(b1-2)Man
Procedure, shortened: as §1

[20] = biological target: Gal(b1-3)[Fuc(a1-4)]GlcNAc(b1-2)Man(a1-3)[Gal(b1-3)[Fuc(a1-4)]GlcNAc(b1-2)Man(a1-6)]Man(b1-4)GlcNAc(b1-4)[Fuc(a1-6)]GlcNAc
Procedure, shortened: as §1

[21] = biological target: Gal(b1-3)[Fuc(a1-4)]GlcNAc(b1-3)Gal(b1-3)[Fuc(a1-4)]GlcNAc
Procedure, shortened: as §1

[22] = biological target: Gal(b1-3)[Fuc(a1-4)]GlcNAc(b1-3)Gal(b1-4)[Fuc(a1-3)]GlcNAc
Procedure, shortened: as §1

[23] = biological target: Gal(b1-3)[Fuc(a1-4)]GlcNAc(b1-6)GalNAc
Procedure, shortened: as §1

[24] = biological target: Gal(b1-3)[GlcNAc(b1-6)]GalNAc
Procedure, shortened: as §1

[25] = biological target: Gal(b1-3)[Neu5Ac(a2-6)]GalNAc
Procedure, shortened: as §1

[26] = biological target: Gal(b1-3)[Neu5Ac(a2-6)]GlcNAc(b1-4)Gal(b1-4)Glc
Procedure, shortened: as §1

[27] = biological target: Gal(b1-3)[Neu5Ac(b2-6)]GalNAc
Procedure, shortened: as §1

Gal(b1-4)Gal = biological target: Gal(b1-4)Gal
Procedure, shortened: as §1

[28] = biological target: Gal(b1-4)GalNAc(a1-3)[Fuc(a1-2)]Gal(b1-4)GlcNAc
Procedure, shortened: as §1

[29] = biological target: Gal(b1-4)GalNAc(b1-3)[Fuc(a1-2)]Gal(b1-4)GlcNAc
Procedure, shortened: as §1

Gal(b1-4)Glc = biological target: Gal(b1-4)Glc
Procedure, shortened: as §1

Gal(b1-4)Glc6S = biological target: Gal(b1-4)Glc6S
Procedure, shortened: as §1

Gal(b1-4)GlcNAc = biological target: Gal(b1-4)GlcNAc
Procedure, shortened: as §1

[30] = biological target: Gal(b1-4)GlcNAc(a1-6)Gal(b1-4)GlcNAc
Procedure, shortened: as §1

Gal(b1-4)GlcNAc(b1-2)Man = biological target: Gal(b1-4)GlcNAc(b1-2)Man
Procedure, shortened: as §1

[31] = biological target: Gal(b1-4)GlcNAc(b1-2)Man(a1-3)Man(b1-4)GlcNAc(b1-4)GlcNAc
Procedure, shortened: as §1

B1: Epa1 (Candida glabrata) (protein)
chain: MGSSHHHHHHSSGLVPRGSHMTSSNDISLASKDPTTFPLGCSPDITTPKKGLSMELYSYDFRKKGSYPCWDAAYLDPNYPRTGYKSHRLLAKVDGVTGNINFYYHATKGCTPQLGHLPASYNYPKPLTMTNFTMLLYGYFRPKVTGFHTFTISADDLLFVNFGAGNAFDCCRRDSSADHFGNYQAYAIWGSKTAKDELTVHLDAGVYYPIRLFYNNREYDGALSFTFKTESNENTVSDFSEYFFSLDDTEEGCPGLISYD
Which results are given for B1?
glycan array binding signal (z-score) [1]: 0.9; glycan array binding signal (z-score) [2]: 0.599; glycan array binding signal (z-score) [3]: 0.171; glycan array binding signal (z-score) [4]: 0.281; glycan array binding signal (z-score) [5]: -0.175; glycan array binding signal (z-score) [6]: -0.323; glycan array binding signal (z-score) [7]: -0.269; glycan array binding signal (z-score) [8]: -0.271; glycan array binding signal (z-score) [9]: 0.065; glycan array binding signal (z-score) [10]: 0.143; glycan array binding signal (z-score) [11]: 0.489; glycan array binding signal (z-score) [12]: -0.238; glycan array binding signal (z-score) [13]: 0.037; glycan array binding signal (z-score) [14]: -0.22; glycan array binding signal (z-score) [15]: 1.69; glycan array binding signal (z-score) [16]: -0.234; glycan array binding signal (z-score) [17]: 1.48; glycan array binding signal (z-score) (Gal(b1-3)GlcNAc6S): 0.176; glycan array binding signal (z-score) [18]: -0.284; glycan array binding signal (z-score) [19]: -0.247; glycan array binding signal (z-score) [20]: -0.159; glycan array binding signal (z-score) [21]: -0.296; glycan array binding signal (z-score) [22]: -0.292; glycan array binding signal (z-score) [23]: -0.199; glycan array binding signal (z-score) [24]: 2.17; glycan array binding signal (z-score) [25]: 4.22; glycan array binding signal (z-score) [26]: -0.213; glycan array binding signal (z-score) [27]: 0.447; glycan array binding signal (z-score) (Gal(b1-4)Gal): -0.163; glycan array binding signal (z-score) [28]: -0.197; glycan array binding signal (z-score) [29]: 0.087; glycan array binding signal (z-score) (Gal(b1-4)Glc): 0.075; glycan array binding signal (z-score) (Gal(b1-4)Glc6S): 0.304; glycan array binding signal (z-score) (Gal(b1-4)GlcNAc): 0.542; glycan array binding signal (z-score) [30]: 2.77; glycan array binding signal (z-score) (Gal(b1-4)GlcNAc(b1-2)Man): -0.267; glycan array binding signal (z-score) [31]: -0.119
